Here are results for 61 compounds from the supplement of paper PMC9446081.

About 220 (0.56%) of roughly 39,000 compounds showed activity. The list shows a part of the results.
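Note: static incubation at 37 °C against the wild-type strain, values averaged over two biological replicates.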

For the test, the system named is Escherichia coli K-12 BW25113. Put plainly: relative growth (OD600 normalised to plate interquartile mean) (fraction); higher = less growth inhibition, active = 0.2 or less. Conditions: 50 µM; LB; incubation time: overnight (16-24 h).
As to `CC(=O)N1CCN(CC(=O)NS(=O)(=O)c2ccccc2)CC1`, the relative growth is inactive: 0.989.
As for `CC[C@@H](C)n1ncn(-c2ccc(N3CCN(c4ccc(OC[C@H]5CO[C@](Cn6cncn6)(c6ccc(Cl)cc6Cl)O5)cc4)CC3)cc2)c1=O`, the figure is inactive: 0.999; as for `C[C@@H]1CCCCO[C@@H](CN(C)C(=O)Nc2ccccc2)[C@H](C)CN([C@H](C)CO)C(=O)c2cc(NC(=O)Nc3ccccc3)ccc2O1`, inactive: 0.99; as for `CN1CCN(C(=O)C[C@@H]2CC[C@H]3[C@@H](COC[C@@H](O)CN3C(=O)C3CC3)O2)CC1`, inactive: 1.01.
As for `CC(C)C[C@@H]1NC(=O)[C@@H]2C[C@H](C(=O)NCCCCCNC(=O)CS)[C@H](c3cccc(OCCO)c3)N2C1=O`, the figure is inactive: 1.
As for `CCCCCCCCCCCCCCCC(=O)OCC(NC(=O)C(Cl)Cl)C(O)c1ccc([N+](=O)[O-])cc1` (stereo unspecified), the figure is inactive: 0.559; as for `C#CCCCCCCCCCCCC(O)CC(O)COC(C)=O.C=CCCCCCCCCCCCC(O)CC(O)COC(C)=O` (stereo unspecified), inactive: 1.03; as for `O=C(O)c1cnn2c1CCCC2`, inactive: 0.987.
Take `COc1ccc2c3c(n(c2c1)C)[C@@H](CO)N(C[C@]13CN(C1)C(=O)Cc1ccccc1)C(=O)c1ccccn1`: the relative growth was inactive: 0.996.
As for `Cc1nnc(SCC2=C(C(=O)O)N3C(=O)[C@@H](N)[C@H]3SC2)s1`, the figure is inactive: 1; as for `C[C@@H]1CN([C@@H](C)CO)C(=O)c2cccc(NS(=O)(=O)c3ccc(F)cc3)c2O[C@@H]1CN(C)S(=O)(=O)c1ccc(F)cc1`, inactive: 1.02; as for `C[C@@H]1CCCCO[C@@H](CN(C)Cc2ccc(C(F)(F)F)cc2)[C@@H](C)CN([C@H](C)CO)C(=O)c2cc(NC(=O)Nc3ccc(C(F)(F)F)cc3)ccc2O1`, inactive: 1.01.
As for `C[C@@H]1CN([C@@H](C)CO)S(=O)(=O)c2ccc(Br)cc2O[C@H]1CN(C)S(=O)(=O)c1ccccc1`, the figure is inactive: 0.935; as for `C[C@@H]1CN([C@@H](C)CO)C(=O)Cc2cc(NC(=O)Cc3cn(C)c4ccccc34)ccc2O[C@@H]1CN(C)Cc1ccc(Cl)c(Cl)c1`, inactive: 0.998; as for `C[C@@H]1CN([C@@H](C)CO)C(=O)c2cc(NC(=O)Nc3ccccc3)ccc2O[C@@H]1CN(C)Cc1ccc(-c2ccccc2)cc1`, inactive: 1.02.
To `O=C(C[C@@H]1CC=CCC[C@@H](Cc2ccc(F)cc2)C(=O)OCCNC1=O)N[C@@H](CO)Cc1ccccc1` belongs inactive: 0.999.
Take `C[C@@H]1CN([C@H](C)CO)C(=O)c2cc(NC(=O)C3CCCCC3)ccc2O[C@@H]1CN(C)Cc1ccc(C(=O)Nc2ccccc2N)cc1`: the relative growth was inactive: 0.984.
On to `Cc1cc(C)n2nc(CCCO)nc2n1`, for which the relative growth was inactive: 0.97.
For the compound `C[C@@H]1CCCCO[C@H](CN(C)S(=O)(=O)c2ccccc2)[C@@H](C)CN([C@H](C)CO)C(=O)c2cc(NC(=O)C3CCCCC3)ccc2O1`, the relative growth was inactive: 1.03.
To `COc1ccc(NC(=O)N(C)C[C@H]2OCCCC[C@H](C)Oc3ccc(NC(=O)c4ccncc4)cc3C(=O)N([C@@H](C)CO)C[C@@H]2C)cc1` belongs inactive: 0.978.
`C=CCOC(=O)[C@H]1[C@@H]2C(=O)O[C@@H](c3ccccc3)[C@@H](c3ccccc3)N2[C@@H](c2ccc(OCCOC(=O)[C@@H]3C[C@@H]4C(=O)N[C@@H](CC(C)C)C(=O)N4[C@@H]3c3cccc(OCCO)c3)cc2)[C@]12C(=O)Nc1ccc(I)cc12`: the relative growth was inactive: 1.05.
As for `NC(=S)c1cnc(-c2ccncc2)nc1N`, the figure is inactive: 0.953.
As for `C[C@@H]1CN([C@@H](C)CO)C(=O)c2cc(NS(=O)(=O)c3cn(C)cn3)ccc2O[C@@H](C)CCCCO[C@@H]1CN(C)Cc1ccc(C(F)(F)F)cc1`, the figure is inactive: 1; as for `C[C@@H]1CN([C@H](C)CO)C(=O)c2cccc(NC(=O)Nc3ccc4c(c3)OCO4)c2O[C@H]1CN(C)Cc1ccc(-c2ccccc2)cc1`, inactive: 0.967.
With `COc1ccc(NC(=O)N(C)C[C@@H]2Oc3ccc(NC(=O)Nc4ccc(C(F)(F)F)cc4)cc3CC(=O)N([C@@H](C)CO)C[C@H]2C)cc1`, the relative growth is inactive: 1.03.
To `CN(C)CCC(=O)N1CCNCC1` belongs inactive: 1.04; to `C[C@H]1CN([C@@H](C)CO)C(=O)Cc2cc(NS(C)(=O)=O)ccc2O[C@H]1CN(C)C(=O)NC1CCCCC1`, inactive: 0.979.
To `COc1ccc([Si](C)(C)[C@H]2[C@H](CC(=O)N(CCO)Cc3ccccc3)O[C@@]3(C(=O)N(Cc4cccc(N5C(=O)c6cccc7cccc5c67)c4)c4ccccc43)[C@@H]2C)cc1` belongs inactive: 1.03.
To `O=C(O)c1cnns1` belongs inactive: 1.01; to `CCCCCCO[C@@H](C)c1cccc(-c2csc(NC(=O)c3cc(Cl)c(/C=C(\C)C(=O)O)c(Cl)c3)n2)c1OC`, inactive: 0.777; to `O=[N+]([O-])c1ccc2nc(CO)[nH]c2c1`, inactive: 0.985.
For the compound `CC(C)(C)OC(=O)Nc1cccc([C@@H]2CC(=O)N(C(=O)OCc3ccccc3)[C@@H]2C(=O)Nc2cccc3cccnc23)c1`, the relative growth was inactive: 0.996.
As for `CNC[C@@H]1Oc2ccc(NC(=O)CCN3CCOCC3)cc2CC(=O)N([C@@H](C)CO)C[C@@H]1C`, the figure is inactive: 1.03; as for `C=CCN1C(C)=N[C@H]2C=C[C@H](NCCCO)[C@H]21`, inactive: 0.999.
With `COc1ccc(S(=O)(=O)Nc2cccc3c2O[C@H](CN(C)C(=O)Nc2c(C)noc2C)[C@@H](C)CN([C@H](C)CO)C3=O)cc1`, the relative growth was inactive: 1.03.
For the compound `O=c1[nH]cn[nH]1`, the relative growth was inactive: 0.986.
Consider `COc1cc(/C=C/c2cc(/C=C/c3ccc(O)c(OC)c3)n(CCc3ccccc3)c(=S)n2)ccc1O`, for which the relative growth was inactive: 1.08.
To `COc1nc(=NC(=O)NS(=O)(=O)Nc2cccc3cccnc23)nc(OC)[nH]1` belongs inactive: 0.863; to `C=CCOC(=O)[C@@H]1[C@H]2C(=O)O[C@H](c3ccccc3)[C@H](c3ccccc3)N2[C@H](c2ccccc2OCCO)[C@@]12C(=O)Nc1ccc(I)cc12`, inactive: 0.995; to `C[C@@H]1CN([C@H](C)CO)C(=O)c2cc(NC(=O)Cn3cnnn3)ccc2O[C@@H]1CN(C)C(=O)Nc1ccccc1`, inactive: 0.987.
On to `COc1ccc(CN(C)C[C@H]2Oc3ccc(NS(=O)(=O)c4c(C)noc4C)cc3CC(=O)N([C@H](C)CO)C[C@H]2C)cc1`, for which the relative growth is inactive: 1.01.
As for `COc1ccc2c3c(n(c2c1)C)[C@H](CO)N(C[C@]13CCN(CC1)Cc1cccc(c1)F)C(=O)Nc1ccc(cc1)F`, the figure is inactive: 1.01.
As for `C[C@@H]1CCCCO[C@@H](CN(C)C(=O)Nc2cccc3ccccc23)[C@@H](C)CN([C@H](C)CO)C(=O)c2cc(NC(=O)Nc3ccc(F)cc3)ccc2O1`, the figure is inactive: 0.992; as for `C[C@@H]1CN([C@@H](C)CO)C(=O)c2cccc(NC(=O)Nc3ccc(C(F)(F)F)cc3)c2O[C@H]1CN(C)Cc1ccc(Oc2ccccc2)cc1`, inactive: 0.954; as for `CCOC(=O)COc1ccc2c(=O)cc(-c3ccccc3)oc2c1`, inactive: 1.02.
As for `Cn1c(=O)c2c(ncn2C[C@@H](O)COc2ccccc2)n(C)c1=O`, the figure is inactive: 0.901.
As to `CN(C)CC#Cc1ccc([C@H]2[C@H]3CN(C(=O)CN(C)C)CCCCN3[C@H]2CO)cc1`, the relative growth was inactive: 1.01.
As for `C[C@H]1CN([C@@H](C)CO)C(=O)Cc2cc(NC(=O)CCN3CCOCC3)ccc2O[C@@H]1CN(C)S(=O)(=O)c1cn(C)cn1`, the figure is inactive: 1.03.
To `C[C@H](CO)N1C[C@H](C)[C@H](CN(C)S(=O)(=O)c2cccs2)Oc2c(NC(=O)C3CCOCC3)cccc2C1=O` belongs inactive: 1.03; to `C[C@H]1CN([C@@H](C)CO)C(=O)Cc2cc(NC(=O)Cc3ccccc3)ccc2O[C@H]1CN(C)Cc1ccc(Oc2ccccc2)cc1`, inactive: 1; to `C[C@@H]1CN([C@H](C)CO)C(=O)c2cc(NS(=O)(=O)c3cn(C)cn3)ccc2O[C@H]1CN(C)Cc1ccc2c(c1)OCO2`, inactive: 0.847.
In the case of `C[C@@H]1CN([C@H](C)CO)S(=O)(=O)c2ccc(C#CCN(C)C)cc2O[C@@H]1CN(C)C(=O)c1ccccc1F`, the relative growth is inactive: 0.993.
To `C[C@H](CO)N1C[C@H](C)[C@@H](CN(C)S(=O)(=O)c2ccc(Cl)cc2)OCCCC[C@H](C)Oc2ccc(NC(=O)c3ccccc3)cc2C1=O` belongs inactive: 1.02; to `C[C@@H]1CCCCO[C@@H](CN(C)Cc2ccc3c(c2)OCO3)[C@H](C)CN([C@H](C)CO)C(=O)c2cc(NS(=O)(=O)c3cccs3)ccc2O1`, inactive: 1.03; to `COCC#Cc1ccc2c(c1)O[C@H](CN(C)S(=O)(=O)c1ccc(OC)cc1)[C@H](C)CN([C@@H](C)CO)S2(=O)=O`, inactive: 0.988.
As to `COc1ccc(S(=O)(=O)Nc2ccc3c(c2)CC(=O)N([C@@H](C)CO)C[C@H](C)[C@H](CN(C)Cc2ccncc2)O3)cc1`, the relative growth is inactive: 0.987.
As for `C[C@@H]1CCCCO[C@@H](CN(C)S(=O)(=O)c2cn(C)cn2)[C@H](C)CN([C@H](C)CO)C(=O)c2cc(NS(=O)(=O)c3ccccc3)ccc2O1`, the relative growth was inactive: 0.929.
To `CCOC(=O)C1=C(COCCN)NC(C)=C(C(=O)OC)C1c1ccccc1Cl.O=S(=O)(O)c1ccccc1` (stereo unspecified) belongs inactive: 0.929; to `C[C@@H]1CN([C@@H](C)CO)C(=O)c2cc(NC(=O)Nc3ccc(C(F)(F)F)cc3)ccc2O[C@@H](C)CCCCO[C@H]1CN(C)Cc1ccc(Cl)c(Cl)c1`, inactive: 1.03.
As for `O=C(OC(C(F)(F)F)C(F)(F)F)N1CCN(Cc2ccc(C(F)(F)F)cc2N2CCCC2)CC1`, the figure is inactive: 0.994; as for `COc1ccc(NC(=O)Nc2ccc3c(c2)C(=O)N([C@H](C)CO)C[C@H](C)[C@H](CN(C)CC2CCCCC2)O3)cc1`, inactive: 0.998.
